# Results taken from the supplement of paper PMC11417369.
# ± gives the standard deviation of the averaged measurements. This is one part of the list.
# System: PfAP2-LT AP2 domain (GST-tagged)
# Assay: gcPBM binding intensity (ln(normalized median fluorescence intensity)); higher = stronger DNA binding
# How it was run: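 An Agilent 4 × 180k array carrying primer-extended double-stranded 36-bp intergenic genomic probes and negative controls received GST-tagged P. falciparum DNA-binding domains expressed in E. coli, about 25 μg on average, for 1 h. The binding buffer contained 1× PBS, 1% milk, 0.2 mg/ml BSA, 0.5% salmon testes DNA and 0.03% Triton X-100. Binding intensity is the top Masliner-normalised natural-log median intensity across replicate spots of either probe orientation, read after Alexa488 anti-GST antibody staining and a 488 nm scan.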
row,Sequence,gcPBM binding intensity (ln)
1,TTGTTAATAAATAAATAAATAAATATATTTATATAT [GTGCAC_negctrl_site271],8.26 ± 0.4
2,TGATTTTTTCATATTCTACACACGTGAACAAATGTG [CACACA_site8987],8.94 ± 0.37
3,TTAAGAATATCTTAGAGTACATTTTATCATCTTAAA [XGTACX_site8298],8.16 ± 0.42
4,TCTTTTTAAATTACTATAATACATTCATAAATTATA [GTGCAC_negctrl_site448],8.44 ± 0.46
5,TGTTGATTTCTCAAATGTACTTTACTTTTCTTCAGA [XGTACX_site7916],8.59 ± 0.47
6,AATTTATTTTTTTAATGTACATATGGTATAAATATA [XGTACX_site8012],8.53 ± 0.38
7,TTTTTTTTTTTTAATTGTACATTTTATATAAACTTT [XGTACX_site6806],8.63 ± 0.68
8,AATATATATATATGTACACACTCCAATACATATACA [CACACA_site2682],9.01 ± 0.38
9,TATATGTATGTATGTACACACAAAAAATGGAATATA [CACACA_site3717],9.27 ± 0.49
10,AGGGAATAAGTAAGGTGTACATAATTATGTTACTTT [XGTACX_site6152],8.95 ± 0.38
11,TTTTTTTATTTTATAAAGCAAAAATAAGAATGAAAT [XGTACX_negctrl_site270],8.12 ± 0.49
12,AAAAATTAAATAAATTTACACACTAATAATTACATA [CACACA_site8260],8.56 ± 0.46
13,AAATATATTTTACATTGTACATGAATAAACTATAAA [XGTACX_site2080],8.51 ± 0.38
14,AAAAATATGTCCATGAAAAGGATAGGCAGGTAATCA [XGTACX_negctrl_site93],9.03 ± 0.47
15,ACGTTAAAATATTGGGTGCTAACACAATAAAAATAA,8.85 ± 0.58
16,TACAATTTTTTAAATGCACACAAAAGGAATAAATAA [CACACA_site8075],8.81 ± 0.4
17,TAATATATGTATTGCACACCTATAACCATTATTTCT [CACACA_site1498],9.01 ± 0.45
18,AAAAGCAAGTTCCAGGGTACATATATATGAAAAAAC [XGTACX_site2408],9.04 ± 0.45
19,TATATAGGTATCATTACACACATGTATACTTATTTG [CACACA_site7864],9.24 ± 0.33
20,CATATAAATAAATACACACACACACGCCTTATAATT [CACACA_site7830],10.19 ± 0.078
21,TATTTAAGAATATGAAGTACATATATTATTTAAAAA [XGTACX_site7897],8.31 ± 0.49
22,CCTAAAAAAAAGAAATGATATACATATGTATATATA [GTGCAC_negctrl_site100],8.69 ± 0.39

row,Sequence,gcPBM binding intensity (ln)
1,TTTTTCTTTCTCTATTGTACACATGGAAACACATAA [XGTACX_site4601],8.72 ± 0.4
2,AAATATATAAAATATACACACAGTAATATATATATA [CACACA_site1385],9.11 ± 0.4
3,TCTTGTTTTCAAATATGTACATAGAATAGACATTTT [XGTACX_site684],8.51 ± 0.44
4,ATAAAATGAACAAACACACACACATATATATATATA [CACACA_site2402],10.2 ± 0.13
5,TATATATAAATATTCAGTACATAGTATTATTAAGTA [XGTACX_site1980],8.64 ± 0.54
6,AAGTTTTATTTAAATTGTACTAAAATTTTTATATTA [XGTACX_site7065],8.35 ± 0.5
7,TCTCAAGTTGTTAAAAAATAAAAACAATAAATCTAA [CACACA_negctrl_site165],8.38 ± 0.49
8,TACAAAAAAAAAAAATAGATAAAATAATAATCAAAT [TGCATGCA_negctrl_site524],8.57 ± 0.64
9,ATATATTGAACATATTGTACATTTTGTTAATATTTT [XGTACX_site7622],8.7 ± 0.43
10,TGAATATTCCTATGCACACAAATTAAAATACATAAT [CACACA_site4403],9.08 ± 0.38
11,ACAAATTTATACTTAAAACACACGTAATCATTTATA [CACACA_site1636],8.7 ± 0.38
12,TAAAATAATTTATGCATACACACATATATATATATA [CACACA_site4021],9.5 ± 0.13
13,AAGAAGAAATGCTTTGCATGCAAATTTTATGCCAAC [TGCATGCA_site721],8.92 ± 0.35
14,CAATTTTTTAAATGCACACAAAAGGAATAAATAAAT [CACACA_site544],8.94 ± 0.38
15,AACAATTGGAATAACGCATGCATTTATAATATAGAA [TGCATGCA_site298],9.05 ± 0.43
16,TAAACAAAAAGGAAGAGTACTTGTAAAATTTGTAAA [XGTACX_site3003],8.7 ± 0.49
17,ATATACATATCATGTAGTACAATTTTTTTACTTTTT [XGTACX_site7988],8.62 ± 0.46
18,TAAAAAAATAAAATTACACACATATATAGATATATA [CACACA_site7273],8.75 ± 0.34
19,CACTTTTTTTAAATGTGTACGTATATGAAAATATCA [XGTACX_site4854],8.52 ± 0.35
20,TTATATTTCTTGAAGGGTACATACCATTATTTTTAA [XGTACX_site1159],8.43 ± 0.45
21,ATATATTTATATATTACACACAATATTGGAGACATA [CACACA_site931],8.93 ± 0.4
22,ATACATATATTAGGATGTACGTTTATTTTAGTTATT [XGTACX_site7169],8.87 ± 0.44
